# The supplement of paper PMC8728848
# The other results are listed elsewhere or left out.
# B1: Langerin K313I (Homo sapiens), Q9UJ71 (protein)
# chain: STLNAQIPELKSDLEKASALNTKIRALQGSLENMSKLLKRQNDILQVVSQGWKYFKGNFYYFSLIPKTWYSAEQFCVSRNSHLTSVTSESEQEFLYKTAGGLIYWIGLTKAGMEGDWSWVDDTPFNKVQSARFWIPGEPNNAGNNEHCGNIKAPSLQAWNDAPCDITFLFICKRPYVPSEP
# Experiments:
# Test in all cases: glycan array binding signal (z-score within array); higher = stronger binding
# Settings in all cases: glycan notation: IUPAC condensed, linker removed
# [1] = molecular target: Neu5Ac(a2-3)Gal(b1-4)GlcNAc(b1-6)GalNAc
# In short: (§1)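 The binding signal is a Z-score computed within each array. Data were drawn from 3228 arrays in the Consortium for Functional Glycomics database, restricted to those with a known protein sequence. Scores were averaged over arrays of the same protein sequence at different concentrations or buffers, and over linkers, and negative values can be taken as non-binding.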
# [2] = molecular target: Neu5Ac(a2-3)Gal(b1-4)GlcNAc(b1-6)[Gal(b1-3)]GalNAc
# In short: as §1
# [3] = molecular target: Neu5Ac(a2-3)Gal(b1-4)GlcNAc(b1-6)[Neu5Ac(a2-3)Gal(b1-3)]GalNAc
# In short: as §1
# [4] = molecular target: Neu5Ac(a2-3)Gal(b1-4)GlcNAc6S
# In short: as §1
# [5] = molecular target: Neu5Ac(a2-3)Gal(b1-4)[Fuc(a1-3)]GlcNAc
# In short: as §1
# [6] = molecular target: Neu5Ac(a2-3)Gal(b1-4)[Fuc(a1-3)]GlcNAc(b1-2)Man
# In short: as §1
# [7] = molecular target: Neu5Ac(a2-3)Gal(b1-4)[Fuc(a1-3)]GlcNAc(b1-3)Gal
# In short: as §1
# [8] = molecular target: Neu5Ac(a2-3)Gal(b1-4)[Fuc(a1-3)]GlcNAc(b1-3)Gal(b1-4)GlcNAc
# In short: as §1
# [9] = molecular target: Neu5Ac(a2-3)Gal(b1-4)[Fuc(a1-3)]GlcNAc(b1-3)Gal(b1-4)[Fuc(a1-3)]GlcNAc(b1-3)Gal(b1-4)[Fuc(a1-3)]GlcNAc
# In short: as §1
# [10] = molecular target: Neu5Ac(a2-3)Gal(b1-4)[Fuc(a1-3)]GlcNAc(b1-3)GalNAc
# In short: as §1
# [11] = molecular target: Neu5Ac(a2-3)Gal(b1-4)[Fuc(a1-3)]GlcNAc(b1-6)[Gal(b1-3)]GalNAc
# In short: as §1
# [12] = molecular target: Neu5Ac(a2-3)Gal(b1-4)[Fuc(a1-3)]GlcNAc(b1-6)[Neu5Ac(a2-3)Gal(b1-3)]GalNAc
# In short: as §1
# [13] = molecular target: Neu5Ac(a2-3)Gal(b1-4)[Fuc(a1-3)]GlcNAc6S
# In short: as §1
# [14] = molecular target: Neu5Ac(a2-3)Gal6S(b1-4)GlcNAc
# In short: as §1
# [15] = molecular target: Neu5Ac(a2-3)Gal6S(b1-4)[Fuc(a1-3)]GlcNAc
# In short: as §1
# Neu5Ac(a2-3)GalNAc = molecular target: Neu5Ac(a2-3)GalNAc
# In short: as §1
# [16] = molecular target: Neu5Ac(a2-3)GalNAc(b1-4)GlcNAc
# In short: as §1
# [17] = molecular target: Neu5Ac(a2-3)[GalNAc(b1-4)]Gal(b1-4)Glc
# In short: as §1
# [18] = molecular target: Neu5Ac(a2-3)[GalNAc(b1-4)]Gal(b1-4)GlcNAc
# In short: as §1
# [19] = molecular target: Neu5Ac(a2-3)[GalNAc(b1-4)]Gal(b1-4)GlcNAc(b1-3)GalNAc
# In short: as §1
# [20] = molecular target: Neu5Ac(a2-3)[Neu5Ac(a2-6)]GalNAc
# In short: as §1
# Neu5Ac(a2-6)Gal = molecular target: Neu5Ac(a2-6)Gal
# In short: as §1
# [21] = molecular target: Neu5Ac(a2-6)Gal(b1-3)GlcNAc(b1-3)[Gal(b1-4)GlcNAc(b1-6)]Gal(b1-4)Glc
# In short: as §1
# Neu5Ac(a2-6)Gal(b1-4)Glc = molecular target: Neu5Ac(a2-6)Gal(b1-4)Glc
# In short: as §1
# [22] = molecular target: Neu5Ac(a2-6)Gal(b1-4)GlcNAc
# In short: as §1
# [23] = molecular target: Neu5Ac(a2-6)Gal(b1-4)GlcNAc(b1-2)Man
# In short: as §1
# [24] = molecular target: Neu5Ac(a2-6)Gal(b1-4)GlcNAc(b1-2)Man(a1-3)Man(b1-4)GlcNAc(b1-4)GlcNAc
# In short: as §1
# [25] = molecular target: Neu5Ac(a2-6)Gal(b1-4)GlcNAc(b1-2)Man(a1-3)[Gal(b1-4)GlcNAc(b1-2)Man(a1-6)]Man(b1-4)GlcNAc(b1-4)GlcNAc
# In short: as §1
# [26] = molecular target: Neu5Ac(a2-6)Gal(b1-4)GlcNAc(b1-2)Man(a1-3)[GlcNAc(b1-2)Man(a1-6)]Man(b1-4)GlcNAc(b1-4)GlcNAc
# In short: as §1
# [27] = molecular target: Neu5Ac(a2-6)Gal(b1-4)GlcNAc(b1-2)Man(a1-3)[GlcNAc(b1-4)][Neu5Ac(a2-6)Gal(b1-4)GlcNAc(b1-2)Man(a1-6)]Man(b1-4)GlcNAc(b1-4)GlcNAc
# In short: as §1
# [28] = molecular target: Neu5Ac(a2-6)Gal(b1-4)GlcNAc(b1-2)Man(a1-3)[Man(a1-6)]Man(b1-4)GlcNAc(b1-4)GlcNAc
# In short: as §1
# [29] = molecular target: Neu5Ac(a2-6)Gal(b1-4)GlcNAc(b1-2)Man(a1-3)[Neu5Ac(a2-3)Gal(b1-4)GlcNAc(b1-2)Man(a1-6)]Man(b1-4)GlcNAc(b1-4)GlcNAc
# In short: as §1
# [30] = molecular target: Neu5Ac(a2-6)Gal(b1-4)GlcNAc(b1-2)Man(a1-3)[Neu5Ac(a2-6)Gal(b1-4)GlcNAc(b1-2)Man(a1-6)]Man(b1-4)GlcNAc(b1-4)GlcNAc
# In short: as §1
# [31] = molecular target: Neu5Ac(a2-6)Gal(b1-4)GlcNAc(b1-2)Man(a1-3)[Neu5Ac(a2-6)Gal(b1-4)GlcNAc(b1-2)Man(a1-6)]Man(b1-4)GlcNAc(b1-4)[Fuc(a1-6)]GlcNAc
# In short: as §1
# [32] = molecular target: Neu5Ac(a2-6)Gal(b1-4)GlcNAc(b1-2)Man(a1-6)Man(b1-4)GlcNAc(b1-4)GlcNAc
# In short: as §1
# [33] = molecular target: Neu5Ac(a2-6)Gal(b1-4)GlcNAc(b1-2)Man(a1-6)[Gal(b1-4)GlcNAc(b1-2)Man(a1-3)]Man(b1-4)GlcNAc(b1-4)GlcNAc
# In short: as §1
# [34] = molecular target: Neu5Ac(a2-6)Gal(b1-4)GlcNAc(b1-2)Man(a1-6)[GlcNAc(b1-2)Man(a1-3)]Man(b1-4)GlcNAc(b1-4)GlcNAc
# In short: as §1
# [35] = molecular target: Neu5Ac(a2-6)Gal(b1-4)GlcNAc(b1-2)Man(a1-6)[Man(a1-3)]Man(b1-4)GlcNAc(b1-4)GlcNAc
# In short: as §1
# [36] = molecular target: Neu5Ac(a2-6)Gal(b1-4)GlcNAc(b1-2)[Neu5Ac(a2-6)Gal(b1-4)GlcNAc(b1-4)]Man(a1-3)[GlcNAc(b1-4)][Neu5Ac(a2-6)Gal(b1-4)GlcNAc(b1-2)[Neu5Ac(a2-6)Gal(b1-4)GlcNAc(b1-6)]Man(a1-6)]Man(b1-4)GlcNAc(b1-4)GlcNAc
# In short: as §1
# [37] = molecular target: Neu5Ac(a2-6)Gal(b1-4)GlcNAc(b1-2)[Neu5Ac(a2-6)Gal(b1-4)GlcNAc(b1-4)]Man(a1-3)[GlcNAc(b1-4)][Neu5Ac(a2-6)Gal(b1-4)GlcNAc(b1-4)Man(a1-6)]Man(b1-4)GlcNAc(b1-4)GlcNAc
# In short: as §1
# [38] = molecular target: Neu5Ac(a2-6)Gal(b1-4)GlcNAc(b1-2)[Neu5Ac(a2-6)Gal(b1-4)GlcNAc(b1-6)]Man(a1-6)[Neu5Ac(a2-6)Gal(b1-4)GlcNAc(b1-2)Man(a1-3)][GlcNAc(b1-4)]Man(b1-4)GlcNAc(b1-4)GlcNAc
# In short: as §1
# [39] = molecular target: Neu5Ac(a2-6)Gal(b1-4)GlcNAc(b1-3)Gal(b1-3)GlcNAc
# In short: as §1
# [40] = molecular target: Neu5Ac(a2-6)Gal(b1-4)GlcNAc(b1-3)Gal(b1-4)GlcNAc
# In short: as §1
# [41] = molecular target: Neu5Ac(a2-6)Gal(b1-4)GlcNAc(b1-3)Gal(b1-4)GlcNAc(b1-2)Man(a1-3)[Neu5Ac(a2-6)Gal(b1-4)GlcNAc(b1-3)Gal(b1-4)GlcNAc(b1-2)Man(a1-6)]GalNAc
# In short: as §1
# [42] = molecular target: Neu5Ac(a2-6)Gal(b1-4)GlcNAc(b1-3)Gal(b1-4)GlcNAc(b1-3)Gal(b1-4)GlcNAc
# In short: as §1
# [43] = molecular target: Neu5Ac(a2-6)Gal(b1-4)GlcNAc(b1-3)Gal(b1-4)GlcNAc(b1-3)Gal(b1-4)GlcNAc(b1-2)Man(a1-3)[Neu5Ac(a2-6)Gal(b1-4)GlcNAc(b1-3)Gal(b1-4)GlcNAc(b1-3)Gal(b1-4)GlcNAc(b1-2)Man(a1-6)]GalNAc
# In short: as §1
binder,measurement,setting,value
B1,glycan array binding signal (z-score),[1],-0.217
same,glycan array binding signal (z-score),[2],-0.214
same,glycan array binding signal (z-score),[3],-0.303
same,glycan array binding signal (z-score),[4],-0.389
same,glycan array binding signal (z-score),[5],-0.288
same,glycan array binding signal (z-score),[6],-0.146
same,glycan array binding signal (z-score),[7],-0.372
same,glycan array binding signal (z-score),[8],0.11
same,glycan array binding signal (z-score),[9],-0.162
same,glycan array binding signal (z-score),[10],0.036
same,glycan array binding signal (z-score),[11],0.225
same,glycan array binding signal (z-score),[12],0.428
same,glycan array binding signal (z-score),[13],-0.341
same,glycan array binding signal (z-score),[14],-0.374
same,glycan array binding signal (z-score),[15],-0.392
same,glycan array binding signal (z-score),Neu5Ac(a2-3)GalNAc,-0.39
same,glycan array binding signal (z-score),[16],-0.359
same,glycan array binding signal (z-score),[17],-0.338
same,glycan array binding signal (z-score),[18],-0.302
same,glycan array binding signal (z-score),[19],-0.108
same,glycan array binding signal (z-score),[20],-0.372
same,glycan array binding signal (z-score),Neu5Ac(a2-6)Gal,-0.081
same,glycan array binding signal (z-score),[21],-0.25
same,glycan array binding signal (z-score),Neu5Ac(a2-6)Gal(b1-4)Glc,-0.278
same,glycan array binding signal (z-score),[22],-0.34
same,glycan array binding signal (z-score),[23],-0.233
same,glycan array binding signal (z-score),[24],-0.322
same,glycan array binding signal (z-score),[25],-0.376
same,glycan array binding signal (z-score),[26],-0.353
same,glycan array binding signal (z-score),[27],-0.32
same,glycan array binding signal (z-score),[28],-0.333
same,glycan array binding signal (z-score),[29],-0.339
same,glycan array binding signal (z-score),[30],-0.254
same,glycan array binding signal (z-score),[31],0.215
same,glycan array binding signal (z-score),[32],-0.336
same,glycan array binding signal (z-score),[33],-0.278
same,glycan array binding signal (z-score),[34],-0.35
same,glycan array binding signal (z-score),[35],-0.371
same,glycan array binding signal (z-score),[36],-0.156
same,glycan array binding signal (z-score),[37],-0.177
same,glycan array binding signal (z-score),[38],-0.274
same,glycan array binding signal (z-score),[39],-0.218
same,glycan array binding signal (z-score),[40],-0.359
same,glycan array binding signal (z-score),[41],0.012
same,glycan array binding signal (z-score),[42],-0.348
same,glycan array binding signal (z-score),[43],0.439
